We go through nine molecules from paper PMC4132714, “Phospho-dependent and phospho-independent interactions of the helicase UPF1 with the NMD factors SMG5–SMG7 and SMG6” (Nucleic Acids Research, 2014).

By UniProt entry, the sequences of proteins in these tests, tags left out. Where a name states a change or a piece, a line headed by the entry shows the natural chain unless it says otherwise. Residues count along the entry.
UniProt Q86US8: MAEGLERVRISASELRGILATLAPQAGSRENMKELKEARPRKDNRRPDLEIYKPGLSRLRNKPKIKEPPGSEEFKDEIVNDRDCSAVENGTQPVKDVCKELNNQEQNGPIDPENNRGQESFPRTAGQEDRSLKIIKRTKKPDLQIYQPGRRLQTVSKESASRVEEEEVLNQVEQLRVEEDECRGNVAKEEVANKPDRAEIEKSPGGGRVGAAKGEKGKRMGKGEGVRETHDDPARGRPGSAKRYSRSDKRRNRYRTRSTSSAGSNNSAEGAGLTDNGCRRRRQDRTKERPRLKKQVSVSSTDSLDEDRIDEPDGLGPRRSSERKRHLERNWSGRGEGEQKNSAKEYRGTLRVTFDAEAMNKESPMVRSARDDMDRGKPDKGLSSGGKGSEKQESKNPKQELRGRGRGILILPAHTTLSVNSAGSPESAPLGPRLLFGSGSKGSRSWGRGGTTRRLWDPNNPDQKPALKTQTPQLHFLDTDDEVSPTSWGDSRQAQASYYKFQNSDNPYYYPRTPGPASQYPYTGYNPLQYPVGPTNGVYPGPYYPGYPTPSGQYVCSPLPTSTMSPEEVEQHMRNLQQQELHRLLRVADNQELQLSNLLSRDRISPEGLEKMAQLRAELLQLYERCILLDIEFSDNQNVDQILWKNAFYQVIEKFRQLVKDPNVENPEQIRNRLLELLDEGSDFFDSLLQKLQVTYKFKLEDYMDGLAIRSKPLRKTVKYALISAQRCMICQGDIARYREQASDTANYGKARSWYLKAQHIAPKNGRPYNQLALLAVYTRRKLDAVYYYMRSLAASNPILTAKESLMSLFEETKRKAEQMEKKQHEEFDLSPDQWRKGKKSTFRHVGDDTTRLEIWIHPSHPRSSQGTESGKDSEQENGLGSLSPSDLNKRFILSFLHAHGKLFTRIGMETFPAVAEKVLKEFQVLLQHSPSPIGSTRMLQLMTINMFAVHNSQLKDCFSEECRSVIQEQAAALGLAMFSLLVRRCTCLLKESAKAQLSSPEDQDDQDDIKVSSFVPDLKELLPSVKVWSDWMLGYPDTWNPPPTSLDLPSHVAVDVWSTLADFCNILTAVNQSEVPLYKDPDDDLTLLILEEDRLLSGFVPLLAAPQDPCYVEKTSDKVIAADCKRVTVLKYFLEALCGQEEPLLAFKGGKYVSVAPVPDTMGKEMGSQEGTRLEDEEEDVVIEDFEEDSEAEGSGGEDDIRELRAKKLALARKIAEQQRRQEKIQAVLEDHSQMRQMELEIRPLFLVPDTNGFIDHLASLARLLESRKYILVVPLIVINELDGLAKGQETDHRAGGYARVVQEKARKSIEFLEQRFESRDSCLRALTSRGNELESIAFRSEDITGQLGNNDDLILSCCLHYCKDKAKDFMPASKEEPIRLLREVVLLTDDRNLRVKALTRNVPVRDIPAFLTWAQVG
GST-SMG6 TPR (residues 580–1166): residues 580-1166 of Q86US8

The target in test [1] is T1, Flag-His-UPF1fl expressed in HEK 293T cells (human) (UniProt Q92900).
T1 sequence: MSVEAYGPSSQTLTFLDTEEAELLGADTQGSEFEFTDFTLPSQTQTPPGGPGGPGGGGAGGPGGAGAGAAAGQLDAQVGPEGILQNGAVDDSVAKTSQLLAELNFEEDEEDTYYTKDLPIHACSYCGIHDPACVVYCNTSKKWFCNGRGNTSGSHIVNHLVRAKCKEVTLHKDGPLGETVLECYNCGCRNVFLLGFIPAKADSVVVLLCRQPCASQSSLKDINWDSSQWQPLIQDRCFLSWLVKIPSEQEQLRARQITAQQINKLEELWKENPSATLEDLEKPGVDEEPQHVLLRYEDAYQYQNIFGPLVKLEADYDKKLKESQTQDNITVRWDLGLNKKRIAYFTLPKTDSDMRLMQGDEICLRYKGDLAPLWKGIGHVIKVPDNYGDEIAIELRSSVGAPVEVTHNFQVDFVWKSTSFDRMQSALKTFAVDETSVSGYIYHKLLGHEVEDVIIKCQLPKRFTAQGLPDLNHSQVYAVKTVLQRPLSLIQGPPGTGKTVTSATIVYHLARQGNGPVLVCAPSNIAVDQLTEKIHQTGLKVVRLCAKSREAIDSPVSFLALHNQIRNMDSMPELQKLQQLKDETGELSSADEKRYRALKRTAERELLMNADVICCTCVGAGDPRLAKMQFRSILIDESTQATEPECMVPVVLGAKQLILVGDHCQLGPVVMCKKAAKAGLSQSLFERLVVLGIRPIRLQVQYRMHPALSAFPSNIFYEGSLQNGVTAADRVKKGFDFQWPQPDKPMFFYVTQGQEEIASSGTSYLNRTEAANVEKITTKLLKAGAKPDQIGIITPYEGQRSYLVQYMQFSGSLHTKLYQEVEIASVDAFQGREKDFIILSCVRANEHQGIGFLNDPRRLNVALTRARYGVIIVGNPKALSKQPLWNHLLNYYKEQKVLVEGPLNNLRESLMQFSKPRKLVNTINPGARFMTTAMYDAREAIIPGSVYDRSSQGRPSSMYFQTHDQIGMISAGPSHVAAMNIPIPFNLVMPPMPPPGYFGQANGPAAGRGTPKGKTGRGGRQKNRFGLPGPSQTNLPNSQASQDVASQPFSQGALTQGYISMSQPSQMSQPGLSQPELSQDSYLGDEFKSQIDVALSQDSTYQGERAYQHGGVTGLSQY
In words: co-IP; HEK 293T co-transfected with HA-SMG6 constructs and Flag-His-UPF1fl; extracts in NET-G buffer (50 mM Tris-HCl pH 8.0, 150 mM NaCl, 0.1% NP-40, 1 mM EDTA, 10% glycerol); anti-Flag M2 resin, 1 h at 4°C; anti-HA and anti-Flag blots; no RNase A.

Test [2] has as its target T2, GST-UPF1CT (residues 917–1118), unphosphorylated (human) (UniProt Q92900).
T2 sequence: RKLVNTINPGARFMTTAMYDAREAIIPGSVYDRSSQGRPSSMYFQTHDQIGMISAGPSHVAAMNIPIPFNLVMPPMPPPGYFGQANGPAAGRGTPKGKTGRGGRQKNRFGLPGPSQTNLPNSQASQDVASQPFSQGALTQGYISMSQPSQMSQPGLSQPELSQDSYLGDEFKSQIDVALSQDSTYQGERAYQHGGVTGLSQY
In words: pull-down; GST pull-down, one prey: ∼2 μg GST-tagged bait with equal amount of untagged prey in 20 mM HEPES pH 7.5, 125 mM NaCl, 2% glycerol, 2 mM DTT (45 μl), 45 min at room temperature; glutathione–Sepharose beads in 20 mM HEPES pH 7.5, 150 mM NaCl, 10% glycerol, 2 mM DTT, 0.1% NP-40, 1 h at 4°C; eluted with glutathione; SDS-PAGE, Coomassie; GST-UPF1 constructs pre-treated with SMG1 wt or SMG1 KD where indicated; both purified.

Test [3] concerns the target GST-SMG6 TPR (residues 580–1166) (human) (UniProt Q86US8). In words: condition: ∼2 μg of bait with equal amounts of prey in 45 μl; pull-down; GST pull-down, one prey: ∼2 μg GST-tagged bait with equal amount of untagged prey in 20 mM HEPES pH 7.5, 125 mM NaCl, 2% glycerol, 2 mM DTT (45 μl), 45 min at room temperature; glutathione–Sepharose beads in 20 mM HEPES pH 7.5, 150 mM NaCl, 10% glycerol, 2 mM DTT, 0.1% NP-40, 1 h at 4°C; eluted with glutathione; SDS-PAGE, Coomassie; GST-UPF1 constructs pre-treated with SMG1 wt or SMG1 KD where indicated; both purified.

Test [4] deals with SMG6 TPR (residues 580–1166), untagged (human) (UniProt Q86US8). In words: SEC; purified SMG5–7 TPR complex and SMG6 TPR injected separately on Superdex 200 HR 10/30; chromatograms overlaid; both purified.
The target is the same in test [5]. In words: AUC; sedimentation velocity; 0.4 mg/ml in 20 mM HEPES pH 7.5, 150 mM NaCl, 5% glycerol; 280 nm, 50 000 rpm, 20°C; both purified.
Test [6] concerns the target T3, SMG5 TPR (SMG5 1–803, Δ408–632) (human) (UniProt Q9UPR3).
T3 sequence: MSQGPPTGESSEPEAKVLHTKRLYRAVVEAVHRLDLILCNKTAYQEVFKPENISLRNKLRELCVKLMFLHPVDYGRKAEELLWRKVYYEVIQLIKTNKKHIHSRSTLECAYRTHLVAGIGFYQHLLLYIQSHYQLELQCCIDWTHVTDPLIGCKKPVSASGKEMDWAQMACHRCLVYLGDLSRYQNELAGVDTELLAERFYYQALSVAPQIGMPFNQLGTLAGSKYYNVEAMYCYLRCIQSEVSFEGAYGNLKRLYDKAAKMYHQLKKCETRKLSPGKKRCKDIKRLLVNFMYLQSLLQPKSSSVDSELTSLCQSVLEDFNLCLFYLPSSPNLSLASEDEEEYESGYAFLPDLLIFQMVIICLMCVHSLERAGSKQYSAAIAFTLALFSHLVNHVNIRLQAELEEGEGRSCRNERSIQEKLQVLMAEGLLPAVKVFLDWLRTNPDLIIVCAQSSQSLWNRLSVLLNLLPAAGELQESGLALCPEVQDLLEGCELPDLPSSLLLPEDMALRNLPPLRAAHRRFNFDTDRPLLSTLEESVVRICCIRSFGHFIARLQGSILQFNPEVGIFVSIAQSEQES
In words: co-purification; His-(TEV)-SMG7 and SMG5-His co-expressed in E. coli; Ni2+ affinity, TEV cleavage, second Ni2+ affinity, anion exchange.

Test [7] deals with T3, SMG5 TPR (SMG5 1–803, Δ408–632) (human). In words: SEC; purified SMG5–7 TPR complex and SMG6 TPR injected separately on Superdex 200 HR 10/30; chromatograms overlaid; both purified.

Results are given in words; binding and its absence hold for the method and conditions named. For some of these results: In cells and extracts the contact can be indirect. Some binding calls cover weakened binding; strength is not graded here. For some of these results: Sequences can lack the tags named with a protein.

Consider “HA-SMG6CT (residues 580–1419; TPR and PIN domains) (from UniProt Q86US8 580-1419) (domain or fragment)”, for which the binding entry in test [1] is given as “no binding”.
With “HA-SMG6NT2 (residues 207–579; low-complexity stretch proximal to the TPR domain) (from UniProt Q86US8 207-579) (domain or fragment)”, the binding result in test [1] was “binds”.
For the molecule “HA-SMG6fl expressed in HEK 293T cells (from UniProt Q86US8 1-1419)”, the binding result in test [1] is reported as “binds”.
With “SMG6fl (HA-Flag tagged, purified from HEK 293T cells) (from UniProt Q86US8 1-1419)”, the binding entry in test [2] was “binds weakly”.
As for “HA-SMG6NT1 (residues 1–206; contains both EBMs) (from UniProt Q86US8 1-206) (domain or fragment)”, in test [1], the binding result was “no binding”.
As for “SMG6 TPR (residues 580–1166), untagged (from UniProt Q86US8 580-1166) (domain or fragment)”, the binding result in test [3] is given as “no binding”; in test [4], “no binding”; in test [5], “no binding (tested: 0.4 mg/ml)”.
On to “HA-SMG6NT (residues 1–580) (from UniProt Q86US8 1-580) (domain or fragment)”, for which, in test [1], the binding result was “binds”.

B1: SMG7 TPR (residues 1–499) (domain or fragment, UniProt Q92540 1-499)
chain: MSLQSAQYLRQAEVLKADMTDSKLGPAEVWTSRQALQDLYQKMLVTDLEYALDKKVEQDLWNHAFKNQITTLQGQAKNRANPNRSEVQANLSLFLEAASGFYTQLLQELCTVFNVDLPCRVKSSQLGIISNKQTHTSAIVKPQSSSCSYICQHCLVHLGDIARYRNQTSQAESYYRHAAQLVPSNGQPYNQLAILASSKGDHLTTIFYYCRSIAVKFPFPAASTNLQKALSKALESRDEVKTKWGVSDFIKAFIKFHGHVYLSKSLEKLSPLREKLEEQFKRLLFQKAFNSQQLVHVTVINLFQLHHLRDFSNETEQHTYSQDEQLCWTQLLALFMSFLGILCKCPLQNESQEESYNAYPLPAVKVSMDWLRLRPRVFQEAVVDERQYIWPWLISLLNSFHPHEEDLSSISATPLPEEFELQGFLALRPSFRNLDFSKGHQGITGDKEGQQRRIRQQRLISIGKWIADNQPRLIQCENEVGKLLFITEIPELILEDPSE
For B1, the binding result is listed as “binds” in test [6], “no binding” in test [3] and “binds” in test [7].

B2: SMG5–7 TPR complex (heterodimer of SMG5 TPR and SMG7 TPR) (complex, UniProt Q9UPR3 1-803; Q92540 1-499)
chain 1: MSQGPPTGESSEPEAKVLHTKRLYRAVVEAVHRLDLILCNKTAYQEVFKPENISLRNKLRELCVKLMFLHPVDYGRKAEELLWRKVYYEVIQLIKTNKKHIHSRSTLECAYRTHLVAGIGFYQHLLLYIQSHYQLELQCCIDWTHVTDPLIGCKKPVSASGKEMDWAQMACHRCLVYLGDLSRYQNELAGVDTELLAERFYYQALSVAPQIGMPFNQLGTLAGSKYYNVEAMYCYLRCIQSEVSFEGAYGNLKRLYDKAAKMYHQLKKCETRKLSPGKKRCKDIKRLLVNFMYLQSLLQPKSSSVDSELTSLCQSVLEDFNLCLFYLPSSPNLSLASEDEEEYESGYAFLPDLLIFQMVIICLMCVHSLERAGSKQYSAAIAFTLALFSHLVNHVNIRLQAELEEGEGRSCRNERSIQEKLQVLMAEGLLPAVKVFLDWLRTNPDLIIVCAQSSQSLWNRLSVLLNLLPAAGELQESGLALCPEVQDLLEGCELPDLPSSLLLPEDMALRNLPPLRAAHRRFNFDTDRPLLSTLEESVVRICCIRSFGHFIARLQGSILQFNPEVGIFVSIAQSEQES
chain 2: MSLQSAQYLRQAEVLKADMTDSKLGPAEVWTSRQALQDLYQKMLVTDLEYALDKKVEQDLWNHAFKNQITTLQGQAKNRANPNRSEVQANLSLFLEAASGFYTQLLQELCTVFNVDLPCRVKSSQLGIISNKQTHTSAIVKPQSSSCSYICQHCLVHLGDIARYRNQTSQAESYYRHAAQLVPSNGQPYNQLAILASSKGDHLTTIFYYCRSIAVKFPFPAASTNLQKALSKALESRDEVKTKWGVSDFIKAFIKFHGHVYLSKSLEKLSPLREKLEEQFKRLLFQKAFNSQQLVHVTVINLFQLHHLRDFSNETEQHTYSQDEQLCWTQLLALFMSFLGILCKCPLQNESQEESYNAYPLPAVKVSMDWLRLRPRVFQEAVVDERQYIWPWLISLLNSFHPHEEDLSSISATPLPEEFELQGFLALRPSFRNLDFSKGHQGITGDKEGQQRRIRQQRLISIGKWIADNQPRLIQCENEVGKLLFITEIPELILEDPSE
Take B2: in test [3], the binding result is given as “no binding”.
